“And” between values parts separate entries of the source, which are not always exact repeats. Identical values can stand only once.
Test system: mock-transfected HEK293H cells (empty pcDNA3.1(+), Gα13-Rluc8, wt Gβ3, Gγ9-GFP)
Assay: BRET² G protein dissociation assay, mock-transfection plus G13-biosensor
Format: cell-based, human
Settings: for BRET2 response, Mean (plotted, Fig. S4): mock-G13
Description: G protein dissociation assays were performed according to the original protocols of the TRUPATH BRET² assay[47],[87] but with subtle modifications as previously described[61],[88],[89]. All reagents and cells were obtained from Thermo Fisher Scientific unless indicated otherwise. The coding sequences for the G protein biosensors[47] (Gα12-Rluc8, Gα13-Rluc8, wt Gβ3, and Gγ9-GFP), the wt GPR55, the construct used for cryo-EM (with GFP bearing a G67A mutation to disrupt fluorescence properties[48] for BRET² assays), GPR55 binding pocket mutants (G152^4.56F, G152^4.56W, N171^ECL2Q, N171^ECL2A, T176^5.33A, R253^6.62A), and the wt TBXA2R were codon-optimized for Homo sapiens, gene-synthesized, and sub-cloned into pcDNA^TM3.1(+) between NheI and HindIII restriction sites by GeneArt (Thermo Fisher Scientific). […] Freshly grown cells were washed with Dulbecco’s Balanced Salt Solution (DPBS, cat. #14200075) and detached using trypsin-ethylenediaminetetraacetic acid (trypsin-EDTA) (cat. #25300-062). Then, the cells were reconstituted to 500,000 cells per mL with fresh medium, and 1,000,000 cells were seeded into each well of a 6-well plate. After 3 h incubation at 37 °C and 5% CO2, adherent cells were transfected with 600 ng DNA (1:1:1:1 ratio of plasmid DNA for GPR55, wt Gβ3, Gγ9-GFP, and Gα12-Rluc8 or Gα13-Rluc8). Plasmid DNA was mixed with 1.5 µL Lipofectamine^TM 2000 (cat. #11668027) in Opti-MEM^TM medium (cat. #31985062) and incubated for 20 min. Then, the mixture was added to each well of the 6-well plate following 24 h incubation at 37 °C and 5% CO2. Transfected cells were washed with DPBS, detached using EDTA (Versene, cat. #15040066), and reconstituted into fresh medium at 500,000 cells mL^−1. From this suspension, 50,000 cells were seeded into each well of a white-bottom 96-well plate (Nunc^TM MicroWell^TM 96 wells, cat. #136101) following overnight incubation at 37 °C and 5% CO2. Then, the adherent cells were washed with assay medium [Hank’s balanced salt solution (HBSS, cat. #14065056) plus 20 mM HEPES pH 7.4 (cat. #15630056)] and finally reconstituted into 50 µL of the same medium. […] Methoxy e-Coelenterazine was used as luciferase substrate (Prolume Purple, NanoLight Technology, cat. #369), reconstituted at 1 mM in methanol and diluted to 37.5 µM with assay buffer (7.5 µM final assay concentration). The assay was started by the addition of 20 µL luciferase substrate to each well of the assay plate using a Multidrop^TM Combi reagent dispenser (Thermo Fisher Scientific), followed by 5 min incubation at room temperature. Then, 30 µL of agonist dilutions or DMSO control was added (final DMSO concentration 1.5%), followed by an additional 5 min incubation at room temperature. BRET² measurements were performed with a PHERAstar® FSX microplate reader (BMG LABTECH) using a BRET² filter (donor emission 370–450 nm, acceptor emission 500–530 nm) at the maximum fluorescence gain of 3600. BRET² ratios were calculated by dividing GFP emission signals from Rluc8 emission counts. Buffer-DMSO controls were subtracted from each data point to calculate ΔBRET² ratios. The half-maximal effective concentration (potency, EC50) and maximal effect (efficacy, Emax) were determined by sigmoidal dose-response curve fit with variable slope.

Cc1cccc(N2CCN(C(=O)c3cc(S(=O)(=O)N(C)C)ccc3N3CCCC3)CC2)c1C [ML184, 3-[[4-(2,3-dimethylphenyl)-1-piperazinyl]carbonyl]-N,N-dimethyl-4-(1-pyrrolidinyl)benzenesulfonamide]
BRET2 response, Mean (plotted, Fig. S4) (concentration 300 pM): 0.01533
BRET2 response, Mean (plotted, Fig. S4) (concentration 1e-9 M): 0.003425
BRET2 response, Mean (plotted, Fig. S4) (concentration 3e-9 M): 0.005562
BRET2 response, Mean (plotted, Fig. S4) (concentration 1e-8 M): 0.0053
BRET2 response, Mean (plotted, Fig. S4) (concentration 3e-8 M): 0.009475
BRET2 response, Mean (plotted, Fig. S4) (concentration 1e-7 M): 0.01556
BRET2 response, Mean (plotted, Fig. S4) (concentration 3e-7 M): 0.009975
BRET2 response, Mean (plotted, Fig. S4) (concentration 1e-6 M): 0.01634
BRET2 response, Mean (plotted, Fig. S4) (concentration 3e-6 M): 0.01818
BRET2 response, Mean (plotted, Fig. S4) (concentration 1e-5 M): 0.01609
BRET2 response, Mean (plotted, Fig. S4) (concentration 3e-5 M): 0.02086
Efficacy (%) (mock-transfection plus G13-biosensor, 30 µM ligand): -9.73% and -15.78%

Reference: PMC11861906, “Structural basis for lipid-mediated activation of G protein-coupled receptor GPR55” (Nature Communications, 2025)
